# Data: PMC4336329 (PLoS ONE, 2015)
# In all, about 310,000 compounds went through this assay and about 14,000 (4.5%) showed an effect of 50% or more. The effect is printed as a negative number. The list shows a part of the results.
# Biological target: human ether-à-go-go-related gene (hERG) potassium channel (human, UniProt Q12809)
# Assay: primary screen, population patch clamp on CHO cells stably expressing hERG
# 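Note: peak tail current of the secondary pulse compared with the same well before compound.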
# Sequence of human ether-à-go-go-related gene (hERG) potassium channel (Q12809 whole entry, looked up): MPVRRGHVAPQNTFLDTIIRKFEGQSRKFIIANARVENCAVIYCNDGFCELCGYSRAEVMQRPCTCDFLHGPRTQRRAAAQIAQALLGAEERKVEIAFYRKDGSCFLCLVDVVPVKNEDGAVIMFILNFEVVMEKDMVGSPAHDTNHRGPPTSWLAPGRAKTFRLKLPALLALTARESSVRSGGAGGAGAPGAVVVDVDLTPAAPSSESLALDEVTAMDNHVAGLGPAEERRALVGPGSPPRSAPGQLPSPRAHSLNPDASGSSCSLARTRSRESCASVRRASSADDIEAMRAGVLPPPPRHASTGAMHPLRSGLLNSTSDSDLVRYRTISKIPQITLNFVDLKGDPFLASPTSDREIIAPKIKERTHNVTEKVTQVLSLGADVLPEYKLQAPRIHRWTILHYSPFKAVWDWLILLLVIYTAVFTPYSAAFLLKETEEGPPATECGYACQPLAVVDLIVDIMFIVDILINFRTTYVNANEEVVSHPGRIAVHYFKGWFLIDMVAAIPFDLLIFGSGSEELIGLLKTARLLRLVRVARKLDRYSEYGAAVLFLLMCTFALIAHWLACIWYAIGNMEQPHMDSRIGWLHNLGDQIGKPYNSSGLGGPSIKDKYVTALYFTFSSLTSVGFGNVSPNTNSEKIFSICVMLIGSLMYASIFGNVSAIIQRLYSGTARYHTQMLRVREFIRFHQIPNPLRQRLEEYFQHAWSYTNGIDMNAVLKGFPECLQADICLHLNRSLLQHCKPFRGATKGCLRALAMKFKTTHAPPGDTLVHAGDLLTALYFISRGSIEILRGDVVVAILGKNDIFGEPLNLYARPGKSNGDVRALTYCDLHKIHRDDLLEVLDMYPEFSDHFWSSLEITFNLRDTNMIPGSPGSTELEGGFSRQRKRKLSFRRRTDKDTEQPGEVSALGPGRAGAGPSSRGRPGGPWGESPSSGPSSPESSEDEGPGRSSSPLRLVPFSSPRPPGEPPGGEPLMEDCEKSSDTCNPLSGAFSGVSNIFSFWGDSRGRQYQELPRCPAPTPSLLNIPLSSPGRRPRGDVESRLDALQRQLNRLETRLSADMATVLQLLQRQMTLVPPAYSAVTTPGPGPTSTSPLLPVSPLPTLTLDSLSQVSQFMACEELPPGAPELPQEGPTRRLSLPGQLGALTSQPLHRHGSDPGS
row,SMILES,"hERG current change (%, negative = inhibition) at 10uM [%]"
1,O=C(c1ccccc1)N1N=C(c2ccccc2)CC1c1ccccc1 (stereo not drawn),17.5
2,COc1ccc(S(=O)(=O)N(CC(=O)NCC2CCCO2)Cc2ccccc2)cc1 (stereo not drawn),-19.3
3,COc1ccc(N2CC(C(=O)Nc3nnc(SCc4ccccn4)s3)CC2=O)cc1 (stereo not drawn),-12.3
4,O=C(Nc1cccc(F)c1)c1cccnc1NCCc1ccccc1,-8.33
5,Cc1ccccc1Cn1c(=O)[nH]c2ccccc21,-1.88
6,Cc1cc(C)nc(/N=C2\NC(=O)CC(C(=O)O)N2c2ccc(Cl)cc2)n1 (stereo not drawn),14.9
7,C/C(=N\NC(=O)c1ccc(CN2CCOCC2)cc1)c1cccc([N+](=O)[O-])c1,-19.5
8,CC(C)C(=O)NNC(=O)CN1CCN(c2nc(-c3ccccc3)cs2)CC1,15.7
9,COc1c(N2CCN(C(=S)NC3CC4CCC3C4)C(C)C2)c(F)cc2c(=O)c(C(=O)O)cn(C3CC3)c12 (stereo not drawn),-11.4
10,Cc1ccc(C(=O)OCC(=O)NCc2ccc(F)cc2)o1,17.2
11,CC(=O)NC(CC(=O)OCC(=O)N1CCc2ccccc21)c1ccccc1 (stereo not drawn),8.71
12,CCc1c(C)nc(SCC(=O)CC(=O)OC(C)C)c(C#N)c1C,-5.39
13,COc1ccc(S(=O)(=O)N2CCN(Cc3cc(OC)c(O)c(OC)c3)CC2)cc1.O=C(O)C(=O)O,4.57
14,CCN(Cc1ccccc1)C(c1ccccn1)c1nnnn1C1CCCCC1 (stereo not drawn),-4
15,COC(=O)COc1ccc(C(=O)OC)cc1,10.1
16,Cc1ccc(-n2nnnc2SCC(=O)N2CCc3ccccc3C2)cc1,-23.3
17,CC1(C)OC(C(=O)NC2CCCCC2)C(C(=O)NC2CCCCC2)O1 (stereo not drawn),21.5
18,CC1CCN(c2ccc3nnc(CCC(=O)N4CCN(c5ccc(F)cc5)CC4)n3n2)CC1,-66.2
19,CC(=O)Nc1ccccc1OC(=O)N1CCOCC1,11.3
20,COc1ccccc1C1/C(=C(/O)c2ccc(C)cc2)C(=O)C(=O)N1CCN1CCOCC1 (stereo not drawn),0.459
21,Cc1ccc(S(=O)(=O)NC(CC(=O)NCC2CCCO2)c2ccccc2)cc1 (stereo not drawn),24.7
22,C/C(N)=C(/C#N)C(=O)CSc1nc2cc(Cl)ccc2c(=O)n1Cc1ccco1,16.8

row,SMILES,"hERG current change (%, negative = inhibition) at 10uM [%]"
1,COc1ccc(OCc2nnc(SC(C)C(=O)Nc3nccs3)n2-c2ccccc2)cc1 (stereo not drawn),-10.4
2,COc1ccccc1NS(=O)(=O)c1ccc2oc(SCC(C)=O)nc2c1,9.88
3,COc1cccc(CNC(=O)CN(c2ccc(C(C)C)cc2)S(=O)(=O)c2c(C)noc2C)c1,-4.72
4,CCN(CC)c1ccc(/C=N/NC(=O)c2cccc(S(=O)(=O)N3CCOCC3)c2)c(O)c1,-17.5
5,COCCn1c(C)cc(C(=O)COC(=O)C23CC4CC(CC(O)(C4)C2)C3)c1C,3.67
6,c1ccc(-n2nnnc2NC2CCCCCC2)cc1,9.74
7,CC(C)(C)c1ccc(S(=O)(=O)N2CCC(c3nc4ccc(Cl)cc4[nH]3)CC2)cc1,-3.97
8,Cc1ccc(/C=C2/C(=O)ON=C2c2ccccc2)o1,5.52
9,NNC(=O)c1cccc(COc2ccc(Br)cc2)c1,-27.4
10,Cc1cccc(NC(=O)CCc2nnc3ccc(N4CCC(C)CC4)nn23)n1,3.7
11,O=C(O)/C=C/C(=O)c1ccc2c(c1)NC(=O)CO2,20.6
12,N=C1SCC(=O)N1c1ccc(Cl)cc1,8.91
13,CCC(C)c1ccc(NC(=O)CC(C)=O)cc1 (stereo not drawn),4.93
14,CCCc1nc2c(s1)CCc1onc(-c3ccc(OC)cc3)c1-2,8.76
15,Cc1cc(C)c(S(=O)(=O)N2CCN(C(=O)c3cccs3)CC2)c(C)c1,-28.5
16,COc1ccc(N2C(=O)CC(N3CCN(S(=O)(=O)c4c(C)cc(C)cc4C)CC3)C2=O)cc1 (stereo not drawn),-12.2
17,CCOC(=O)Nc1cc(OCC)c(NC(=O)C2CC2)cc1OCC,11
18,c1ccc2sc(N3CCNCC3)nc2c1,17
19,COc1cccc(CN2CCN(Cc3ccc4c(NC(C)=O)cccc4n3)CC2CCO)c1 (stereo not drawn),5.13
20,COc1ccc(/C=C2/Sc3ccc(C(=O)N4CCOCC4)cc3NC2=O)cc1OC,26.9
21,O=C(Cc1cccs1)NNC(=S)NCc1ccco1,14.2
22,CCc1ccc(NS(=O)(=O)c2ccc3c(c2)oc(=O)n3C)cc1,10.8

row,SMILES,"hERG current change (%, negative = inhibition) at 10uM [%]"
1,CCOc1ccccc1/C=N/n1c(C2CCCCC2)n[nH]c1=S,16.8
2,CS(=O)(=O)c1ccc(Cl)c(NC(=O)c2cccc(Br)c2)c1,-1.24
3,Cl.O=C(OC[C@@H]1CCCN2CCCC[C@H]12)c1cc2ccccc2oc1=O,-50.1
4,Cn1c(=O)c(=O)n(C)c2cc(S(=O)(=O)CCC(=O)Nc3cccc(C(F)(F)F)c3)ccc21,26.7
5,CCCC(=O)Nc1nnc(-c2ccccc2)o1,7.03
6,O=C(NS(=O)(=O)c1ccc2c(c1)OCCO2)c1ccccc1,28.1
7,O=S(=O)(Cc1ccc(Cl)cc1)NCc1cccnc1,-5.17
8,Cc1cc(C)n2c(SCC(=O)NCc3ccco3)nnc2n1,21.7
9,O=C(c1sc2cc(F)ccc2c1Cl)N1CCN(c2cccc(Cl)c2)CC1,6.75
10,O=C(NNC(=O)C12CC3CC(CC(C3)C1)C2)c1csc(N2CCOCC2)n1,11.3
11,COC(=O)c1cc(Br)c(=O)n(-c2ccc(F)cc2)c1,-63.9
12,O=C(CSc1nncn1-c1ccccc1)c1c[nH]c2ccccc12,18
13,COc1ccccc1C(=O)Nc1cc(C)ccc1NC(=O)c1ccco1,-44.4
14,CC(C)NC(=O)c1ccc(N2CC3CC(C2)c2cccc(=O)n2C3)c([N+](=O)[O-])c1 (stereo not drawn),-3.98
15,Cc1ccc(OCC(=O)n2nc(C)cc2C)c(Br)c1,-0.529
16,CC(C)NC(=O)Nc1ccc(Br)cc1Cl,22.9
17,CC1(C)CC(=O)C=C(NCCCN2CCCC2=O)C1,-3.45
18,CN(C)S(=O)(=O)c1ccc(C(=O)OCCN=C2NS(=O)(=O)c3ccccc32)cc1,6.78
19,CCC/S(C)=N/S(=O)(=O)c1ccc(C)cc1 (stereo not drawn),0.0593
20,Cc1ccccc1NC(=O)CN1CCN(C(=O)c2ccco2)CC1,-29.4
21,CC(C)(C)c1ccc(C(=O)N2CCC(C(=O)NCCC3=CCCCC3)CC2)cc1,-19.9
22,N#Cc1ccc(-c2cccnc2)nc1SCC(=O)c1ccccc1,0.311

row,SMILES,"hERG current change (%, negative = inhibition) at 10uM [%]"
1,Cc1cc(C)cc(NC(=O)COc2ccc3c(C)c(Cc4ccccc4)c(=O)oc3c2)c1,5.91
2,Cc1cc(C)c(-n2c(SCc3nc4ccccc4s3)n[nH]c2=O)c(C)c1,-20.9
3,COc1ccccc1-c1nnc(SCC(=O)OC(C)C)o1,-8.71
4,NP(=O)(Oc1ccccc1Cl)Oc1ccccc1Cl,5.71
5,COc1ccc(C(=O)Nc2cccc(NC(=O)c3cccs3)c2)cc1OC,8.5
6,O=C(COC(=O)CCc1ccc(S(=O)(=O)N2CCCCC2)cc1)Nc1ccc2c(c1)OCO2,-1.78
7,Cc1cc(C(=O)Nc2ccc(S(=O)(=O)N3CCCC3)cc2)cs1,-0.109
8,CN(C)C(=O)CNc1n[nH]c(=S)[nH]c1=O,1.61
9,COc1ccc(NC(=O)CSc2nnc(NC(=O)C3CCC3)s2)cc1,18.3
10,Cc1cc(C)cc(NC(=O)c2ccccc2CC[N+](=O)[O-])c1,6.14
11,CCCC(=O)N(CCN(Cc1ccccc1)C(=O)CCC)Cc1ccccc1,-42.5
12,COc1ccc([C@H]2/C=C\CN(C(=O)[C@H](Cc3ccccc3)NC(=O)OCC3c4ccccc4-c4ccccc43)CC(=O)N2Cc2ccc(F)cc2)cc1,-24.4
13,Cn1c(SC2C(=O)CC(C)(C)CC2=O)nnc1-c1ccco1,7.11
14,COc1ccc(-c2nnc(SCC(=O)Nc3cccc(Cl)c3)o2)cc1,-15.1
15,O=P(O)(CCc1ccccn1)CN1CCCCC1,-67.6
16,COc1ccc(S(=O)(=O)N2CCC(C(=O)NCCC(=O)NCc3cccc(OC)c3)CC2)cc1,-4.05
17,COC(=O)c1cc2c(ccn2-c2ccc(F)cc2)n1CC(C)C,9.33
18,CN(CC(=O)Nc1ccc(F)cc1)C(=O)c1cccc(S(=O)(=O)N2CCN(c3ccc(F)cc3)CC2)c1,-3.95
19,CCOC(=O)[C@H]1[C@H]2COc3ccc(OC)cc3[C@@H]2N2C(=O)c3ccc(F)cc3NC(=O)[C@@]12C,-2.29
20,COc1ccc(C2Nc3ccccc3C(=O)N2c2ccccc2)cc1Cn1cc([N+](=O)[O-])cn1 (stereo not drawn),-37.3
21,Nc1nnnn1/N=C/c1ccc(Br)cc1,17.4
